From patent publication US12344663B2, “Anti-C3 antibodies and antigen-binding fragments thereof and their uses for treating eye or ocular diseases” (CDR-Life AG, priority 2021, dated 2025)

Assay: In vitro BrM permeation assay, Ussing chamber
Assay type: in vitro ADME, porcine
Settings: 0.1 mg/ml, up to 72 h, in words
Method: Porcine Bruch's membrane samples are used for this measurement. Porcine eyes are collected from the slaughterhouse) no more than 6 hours after the animals were sacrificed and stored at 4° C. until use (on same day).
Preparation of enriched Bruch's Membrane (BrM): The eyes are placed into a disposable petri-dish and any residual tissue surrounding the eyeball is removed. The eyeball is incised next to the iris with a scalpel and the front part of the eye as well as lens, vitreous and retinal tissue are removed from the eyecup. […]
Sampling and membrane integrity analysis: For sampling at different timepoints (4 h, 24 h, 48 h and 72 h) the solution in the single compartments is mixed by carefully pipetting up and down and 90 μl were transferred separately from each sample and diffusate chamber to collection tubes. […] Accumulation of blue particles in the second compartment is observed and camera pictures are recorded to control for overall membrane integrity.
Sample analysis: 15 μl of each solution from the sample and diffusate chambers are effectively loaded on 2 precast polyacrylamide gels (NuPAGE Bis-Tris gels) together with a similar amount of stored mastermix as loading control. The first gel is analyzed by standard SDS-PAGE and Coomassie-based staining methods for protein detection (anti-C3 scFv). […]
Evaluation: Pictures of the SDS-gels are analyzed using ImageJ2 software (Fiji). […]

B1: Compound A3: NGM621 surrogate, anti-C3 IgG, HC SEQ ID NO: 53, LC SEQ ID NO: 54 (antibody)
heavy: QVQLVQSGAEVKKPGASVKVSCKASGYTFTDFYMDWVRQAPGQRLEWMGYIYPHNGGTTYNQQFTGRVTITVDKSASTAYMELSSLRSEDTAVYYCARRGGFDFDYWGQGTLVTVSS[letters of human IgG1 constant region left out]
light: DIQMTQSPSSLSASVGDRVTITCKASENVDTYVSWYQQKPGKAPKLLIYGASNRYTGVPSRFSGSGSGTDFTFTISSLQPEDIATYHCGQSHSYPLTFGQGTKLEIKRTVAAPSVFIFPPSDEQLKSGTASVVCLLNNFYPREAKVQWKVDNALQSGNSQESVTEQDSKDSTYSLSSTLTLSKADYEKHKVYACEVTHQGLSSPVTKSFNRGEC
modifications: Compound C3 - HC; Compound C3 - LC
- Diffusion/penetration through porcine Bruch's membrane: Reduced penetration
